# The other results are listed elsewhere or left out.
# B1: Siglec-G (Mus musculus), Q80ZE3 (protein)
# chain: MSLLLFLLSFLLDGPQGQMESYFLQVQRIVKAQEGLCIFVPCSFSSPEGKWLNRSPLYGYWFKGIRKPSLSFPVATNNKDKVLEWEARGRFQLLGDISKKNCSLLIKDVQWGDSTNYFFRMERGFERFSFKEEFRLQVEALTQKPDIFIPEVLEPGEPVTVVCLFSWTFNQCPAPSFSWMGDAVSFQESRPHTSNYSVLSFIPGLQHHDTELTCQLDFSRMSTQRTVRLRVAYAPRSLAISIFHDNVSVPDLHENPSHLEVQQGQSLRLLCTADSQPPATLSWVLEDQVLSWSSPVGSRTLALELPWVKAGDSGHYTCQAENRLGSQQHTLDLSVLYPPQDLRVTVSQANRTVLEILRNAISLPVLEGQSLCLVCVTYSNPPANVSWAWVTQTLIPIQSSEPGVLELPLVQREHEGEFTCAAQNPLGAQRISLSLSVHYPPQMSSPSCSWEAKGLHCNCSSRAWPAPSLRWRLGEGLLEGNSSNASFTVTFSSLGPWVNSSLSLLQELGPSLWLSCESWNTHGAQTTSVLLLPDKDSATAFSKGAVLGFGITALLALCLIVVIVKTLQKKGTQEEPSRPKLSRGSTILDYINVVPKTRSLARNWKAEPDAPSRSSPLDTHFPKPKKKQKDPHFTYPGCPDPTSSSQVPVSENNPEELHYAALNFSRLRLQETQDPQDTYSDYTEVRVH
# What was measured:
# Test in all cases: glycan array binding signal (z-score within array); higher = stronger binding
# Conditions in all cases: glycan notation: IUPAC condensed, linker removed
# [1] = molecular target: Gal(a1-3)Gal(b1-4)[Fuc(a1-3)]GlcNAc
# In short: (§1)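 The Consortium for Functional Glycomics database supplied 3228 glycan arrays, of which those lacking an available protein sequence were dropped. The binding signal, a within-array Z-score, was averaged across arrays of the same protein sequence and across linkers. Negative scores can be read as non-binding.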
# Gal(a1-3)GalNAc = molecular target: Gal(a1-3)GalNAc
# In short: as §1
# [2] = molecular target: Gal(a1-3)[Gal(a1-4)]Gal(b1-4)GlcNAc
# In short: as §1
# Gal(a1-4)Gal(b1-4)Glc = molecular target: Gal(a1-4)Gal(b1-4)Glc
# In short: as §1
# Gal(a1-4)Gal(b1-4)GlcNAc = molecular target: Gal(a1-4)Gal(b1-4)GlcNAc
# In short: as §1
# Gal(a1-4)GlcNAc = molecular target: Gal(a1-4)GlcNAc
# In short: as §1
# Gal(a1-6)Glc = molecular target: Gal(a1-6)Glc
# In short: as §1
# Gal(b1-2)Gal = molecular target: Gal(b1-2)Gal
# In short: as §1
# Gal(b1-3)Gal = molecular target: Gal(b1-3)Gal
# In short: as §1
# Gal(b1-3)GalNAc = molecular target: Gal(b1-3)GalNAc
# In short: as §1
# [3] = molecular target: Gal(b1-3)GalNAc(b1-4)Gal(b1-4)Glc
# In short: as §1
# [4] = molecular target: Gal(b1-3)GalNAc(b1-4)[Neu5Ac(a2-3)]Gal(b1-4)Glc
# In short: as §1
# Gal(b1-3)GlcNAc = molecular target: Gal(b1-3)GlcNAc
# In short: as §1
# [5] = molecular target: Gal(b1-3)GlcNAc(b1-3)Gal(b1-4)Glc
# In short: as §1
# [6] = molecular target: Gal(b1-3)[Fuc(a1-4)]GlcNAc
# In short: as §1
# [7] = molecular target: Gal(b1-3)[GlcNAc(b1-6)]GalNAc
# In short: as §1
# [8] = molecular target: Gal(b1-3)[Neu5Ac(a2-6)]GalNAc
# In short: as §1
# [9] = molecular target: Gal(b1-3)[Neu5Ac(a2-6)]GlcNAc(b1-4)Gal(b1-4)Glc
# In short: as §1
# [10] = molecular target: Gal(b1-3)[Neu5Ac(b2-6)]GalNAc
# In short: as §1
# [11] = molecular target: Gal(b1-4)GalNAc(a1-3)[Fuc(a1-2)]Gal(b1-4)GlcNAc
# In short: as §1
# Gal(b1-4)Glc = molecular target: Gal(b1-4)Glc
# In short: as §1
# Gal(b1-4)Glc6S = molecular target: Gal(b1-4)Glc6S
# In short: as §1
# Gal(b1-4)GlcNAc = molecular target: Gal(b1-4)GlcNAc
# In short: as §1
# [12] = molecular target: Gal(b1-4)GlcNAc(b1-3)Gal(b1-4)Glc
# In short: as §1
# [13] = molecular target: Gal(b1-4)GlcNAc(b1-3)Gal(b1-4)GlcNAc
# In short: as §1
# [14] = molecular target: Gal(b1-4)GlcNAc(b1-3)Gal(b1-4)GlcNAc(b1-3)Gal(b1-4)GlcNAc
# In short: as §1
# [15] = molecular target: Gal(b1-4)GlcNAc(b1-3)Gal(b1-4)[Fuc(a1-3)]GlcNAc(b1-3)Gal(b1-4)[Fuc(a1-3)]GlcNAc
# In short: as §1
# [16] = molecular target: Gal(b1-4)GlcNAc(b1-3)GalNAc
# In short: as §1
# [17] = molecular target: Gal(b1-4)GlcNAc(b1-3)[Gal(b1-4)GlcNAc(b1-6)]GalNAc
# In short: as §1
# [18] = molecular target: Gal(b1-4)GlcNAc(b1-6)GalNAc
# In short: as §1
# [19] = molecular target: Gal(b1-4)GlcNAc(b1-6)[Gal(b1-3)]GalNAc
# In short: as §1
# Gal3S(b1-3)GalNAc = molecular target: Gal3S(b1-3)GalNAc
# In short: as §1
# Gal3S(b1-3)GlcNAc = molecular target: Gal3S(b1-3)GlcNAc
# In short: as §1
# [20] = molecular target: Gal3S(b1-3)[Fuc(a1-4)]GlcNAc
# In short: as §1
# Gal3S(b1-4)Glc = molecular target: Gal3S(b1-4)Glc
# In short: as §1
# Gal3S(b1-4)Glc6S = molecular target: Gal3S(b1-4)Glc6S
# In short: as §1
# Gal3S(b1-4)GlcNAc = molecular target: Gal3S(b1-4)GlcNAc
# In short: as §1
# Gal4S(b1-4)GlcNAc = molecular target: Gal4S(b1-4)GlcNAc
# In short: as §1
# Gal6S(b1-4)Glc = molecular target: Gal6S(b1-4)Glc
# In short: as §1
# Gal6S(b1-4)Glc6S = molecular target: Gal6S(b1-4)Glc6S
# In short: as §1
# GalNAc(a1-3)Gal = molecular target: GalNAc(a1-3)Gal
# In short: as §1
# GalNAc(a1-3)GalNAc = molecular target: GalNAc(a1-3)GalNAc
# In short: as §1
# GalNAc(b1-3)GalNAc = molecular target: GalNAc(b1-3)GalNAc
# In short: as §1
# GalNAc(b1-4)GlcNAc = molecular target: GalNAc(b1-4)GlcNAc
# In short: as §1
# Glc(a1-4)Glc = molecular target: Glc(a1-4)Glc
# In short: as §1
# Glc(b1-4)Glc = molecular target: Glc(b1-4)Glc
# In short: as §1
# Glc(b1-6)Glc = molecular target: Glc(b1-6)Glc
# In short: as §1
# [21] = molecular target: GlcNAc(b1-2)Gal(b1-3)GalNAc
# In short: as §1
# GlcNAc(b1-3)Gal = molecular target: GlcNAc(b1-3)Gal
# In short: as §1
# [22] = molecular target: GlcNAc(b1-3)Gal(b1-3)GalNAc
# In short: as §1
# GlcNAc(b1-3)Gal(b1-4)Glc = molecular target: GlcNAc(b1-3)Gal(b1-4)Glc
# In short: as §1
# [23] = molecular target: GlcNAc(b1-3)Gal(b1-4)GlcNAc
# In short: as §1
# [24] = molecular target: GlcNAc(b1-3)[GlcNAc(b1-6)]GalNAc
# In short: as §1
# [25] = molecular target: GlcNAc(b1-3)[GlcNAc(b1-6)]GlcNAc(b1-4)GlcNAc
# In short: as §1
# [26] = molecular target: GlcNAc(b1-4)GlcNAc(b1-4)GlcNAc
# In short: as §1
# [27] = molecular target: GlcNAc(b1-4)[GlcNAc(b1-6)]GalNAc
# In short: as §1
# GlcNAc(b1-6)GalNAc = molecular target: GlcNAc(b1-6)GalNAc
# In short: as §1
# Kdn(a2-3)Gal(b1-3)GlcNAc = molecular target: Kdn(a2-3)Gal(b1-3)GlcNAc
# In short: as §1
# Kdn(a2-3)Gal(b1-4)GlcNAc = molecular target: Kdn(a2-3)Gal(b1-4)GlcNAc
# In short: as §1
# [28] = molecular target: Man(a1-2)Man(a1-2)Man(a1-3)Man
# In short: as §1
binder,measurement,setting,value
B1,glycan array binding signal (z-score),[1],0.006
same,glycan array binding signal (z-score),Gal(a1-3)GalNAc,-0.268
same,glycan array binding signal (z-score),[2],-0.018
same,glycan array binding signal (z-score),Gal(a1-4)Gal(b1-4)Glc,-0.237
same,glycan array binding signal (z-score),Gal(a1-4)Gal(b1-4)GlcNAc,-0.084
same,glycan array binding signal (z-score),Gal(a1-4)GlcNAc,-0.112
same,glycan array binding signal (z-score),Gal(a1-6)Glc,-0.257
same,glycan array binding signal (z-score),Gal(b1-2)Gal,-0.263
same,glycan array binding signal (z-score),Gal(b1-3)Gal,-0.139
same,glycan array binding signal (z-score),Gal(b1-3)GalNAc,-0.145
same,glycan array binding signal (z-score),[3],-0.328
same,glycan array binding signal (z-score),[4],-0.159
same,glycan array binding signal (z-score),Gal(b1-3)GlcNAc,-0.146
same,glycan array binding signal (z-score),[5],-0.136
same,glycan array binding signal (z-score),[6],-0.201
same,glycan array binding signal (z-score),[7],-0.221
same,glycan array binding signal (z-score),[8],-0.38
same,glycan array binding signal (z-score),[9],-0.223
same,glycan array binding signal (z-score),[10],-0.021
same,glycan array binding signal (z-score),[11],0.38
same,glycan array binding signal (z-score),Gal(b1-4)Glc,-0.105
same,glycan array binding signal (z-score),Gal(b1-4)Glc6S,-0.352
same,glycan array binding signal (z-score),Gal(b1-4)GlcNAc,-0.139
same,glycan array binding signal (z-score),[12],-0.335
same,glycan array binding signal (z-score),[13],-0.113
same,glycan array binding signal (z-score),[14],-0.074
same,glycan array binding signal (z-score),[15],0.146
same,glycan array binding signal (z-score),[16],-0.134
same,glycan array binding signal (z-score),[17],-0.122
same,glycan array binding signal (z-score),[18],-0.381
same,glycan array binding signal (z-score),[19],-0.348
same,glycan array binding signal (z-score),Gal3S(b1-3)GalNAc,-0.169
same,glycan array binding signal (z-score),Gal3S(b1-3)GlcNAc,-0.366
same,glycan array binding signal (z-score),[20],-0.354
same,glycan array binding signal (z-score),Gal3S(b1-4)Glc,-0.297
same,glycan array binding signal (z-score),Gal3S(b1-4)Glc6S,-0.346
same,glycan array binding signal (z-score),Gal3S(b1-4)GlcNAc,-0.391
same,glycan array binding signal (z-score),Gal4S(b1-4)GlcNAc,0.137
same,glycan array binding signal (z-score),Gal6S(b1-4)Glc,-0.124
same,glycan array binding signal (z-score),Gal6S(b1-4)Glc6S,0.228
same,glycan array binding signal (z-score),GalNAc(a1-3)Gal,-0.271
same,glycan array binding signal (z-score),GalNAc(a1-3)GalNAc,-0.318
same,glycan array binding signal (z-score),GalNAc(b1-3)GalNAc,-0.269
same,glycan array binding signal (z-score),GalNAc(b1-4)GlcNAc,-0.278
same,glycan array binding signal (z-score),Glc(a1-4)Glc,-0.253
same,glycan array binding signal (z-score),Glc(b1-4)Glc,0.012
same,glycan array binding signal (z-score),Glc(b1-6)Glc,-0.045
same,glycan array binding signal (z-score),[21],-0.21
same,glycan array binding signal (z-score),GlcNAc(b1-3)Gal,-0.264
same,glycan array binding signal (z-score),[22],-0.223
same,glycan array binding signal (z-score),GlcNAc(b1-3)Gal(b1-4)Glc,-0.034
same,glycan array binding signal (z-score),[23],-0.309
same,glycan array binding signal (z-score),[24],-0.245
same,glycan array binding signal (z-score),[25],-0.096
same,glycan array binding signal (z-score),[26],-0.138
same,glycan array binding signal (z-score),[27],-0.034
same,glycan array binding signal (z-score),GlcNAc(b1-6)GalNAc,-0.411
same,glycan array binding signal (z-score),Kdn(a2-3)Gal(b1-3)GlcNAc,0.07
same,glycan array binding signal (z-score),Kdn(a2-3)Gal(b1-4)GlcNAc,0.326
same,glycan array binding signal (z-score),[28],-0.171

# Source: the supplement of paper PMC8728848
